According to the GPR68 mutational scans of Howard et al. (2025):

B1: GPR68, Q15743 (parent)
chain: MGNITADNSSMSCTIDHTIHQTLAPVVYVTVLVVGFPANCLSLYFGYLQIKARNELGVYLCNLTVADLFYICSLPFWLQYVLQHDNWSHGDLSCQVCGILLYENIYISVGFLCCISVDRYLAVAHPFRFHQFRTLKAAVGVSVVIWAKELLTSIYFLMHEEVIEDENQHRVCFEHYPIQAWQRAINYYRFLVGFLFPICLLLASYQGILRAVRRSHGTQKSRKDQIQRLVLSTVVIFLACFLPYHVLLLVRSVWEASCDFAKGVFNAYHFSLLLTSFNCVADPVLYCFVSETTHRDLARLRGACLAFLTCSRTGRAREAYPLGAPEASGKSGAQGEEPELLTKLHPAFQTPNSPGSGGFPTGRLA

What was measured:
[1] = variants of: B1; experiment: cAMP reporter score (Enrich2 score, wild type = 0); higher = more signal; HEK293T, FACS bins
[2] = variants of: B1; experiment: surface expression score (Enrich2 score, wild type = 0); higher = more signal; HEK293T, FACS bins

Variant	cAMP reporter score ([1]; pH 5.5)	cAMP reporter score ([1]; pH 6)	cAMP reporter score ([1]; pH 6, modulator: ogerin)	cAMP reporter score ([1]; pH 6.5, modulator: ogerin)	surface expression score [2]
V264_F265del	-1.36	-0.492	-1.34	-1.03	-1.9
H269W	-0.906	-0.727	-1.31	-1.54	0.226
H269V	-1.04	-0.701	-1.22	-1.23	1.09
H269N	-1.36	-0.874	-0.762	-0.839	0.026
H269M	-1.1	-0.681	-1.15	-0.938	0.878
H269D	-1.15	-1.03	-1.06	-0.921	0.3
H269R	0.095	-0.062	0.207	0.513	-0.838
H269E	-0.736	-0.482	0.725		1.67
H269P	0.485	-0.953		-0.496	-2.31
H269K	1.76	2.22	1.84	5.34	-0.867
H269S	-1.52	-0.982	-0.883	-0.9	-0.097
H269G	-1.63	-0.08	-1.53	-0.858	-0.616
H269L	-1.03	-1.44	-1.04	-0.313	1.31
H269F	-0.889	0.049	-0.833	-1.23	1.34
H269C	-1.05	-0.563	-1.13	-0.863	0.322
H269A	0.253	-0.746	-0.324	-0.858	1.88
H269Y	-1.33	-0.648	-1.65	-1.34	-0.894
H269I	-0.758	-1.07	-1.79	-0.71	0.946
H269Q	-0.932	-1.49	-1.22	-1.53	0.109
H269T	-0.148	-0.473	-1.67	-0.652	0.954
K262del	-1.62	-1.03	-1.21	-1.33	0.383

Variant	cAMP reporter score ([1]; pH 5.5)	cAMP reporter score ([1]; pH 6)	cAMP reporter score ([1]; pH 6, modulator: ogerin)	cAMP reporter score ([1]; pH 6.5, modulator: ogerin)	surface expression score [2]
F265_N266del	-1.22	-0.991	-2.07	-0.698	-2.18
Y268H	-0.961	-0.244	-1.12	-0.645	-0.803
Y268S	-1.33	-0.5	-1.13	-1.17	
Y268A	-1.99	-1.54	-1.98	-1.33	-0.931
Y268E	-0.975	-0.424	-1.4	-1.37	
Y268R	-0.83	-1.23		-1.07	-2.38
Y268W	-0.527	-0.773	-0.571	-0.878	0.964
Y268N	-0.658	-2	-1.43	-1.08	-2.19
Y268F	-0.939	-0.953	-1.05	-1.05	-0.105
Y268C	-0.554	-0.227	-1.14	-1.33	-1.88
Y268M	-1.23	-0.734	-0.949		-0.64
Y268I	-1.39	-0.463	-1.45	-1.05	-2.27
Y268D	-1.61	-1.07	-1.31	-0.439	-2.79
Y268V	-1.49	-1.19	-1.45	-0.873	-1.39
Y268G	-1.53	-1.56		-0.896	-1.07
Y268L	-1.02	-0.764	-1.59	-1.25	-1.65
Y268P	-0.857	-1.29		-1.58	-1.41
V264_F265insGS	-1.27	-0.431	-1.9	-0.58	-2.14
D259_A261del	-1.31	-1.5	-0.931	-1.91	-2.17
N266_A267insGS	-1.01	-1.29	-1.38	-1.16	-2.15
Y268del	-0.203	-1.34		-1.45	-2.55

Variant	cAMP reporter score ([1]; pH 5.5)	cAMP reporter score ([1]; pH 6)	cAMP reporter score ([1]; pH 6, modulator: ogerin)	cAMP reporter score ([1]; pH 6.5, modulator: ogerin)	surface expression score [2]
H269_F270del	-1.39	-1.46	-1.67	-1.06	-2.41
F260del	-0.731	-0.429	-1.08	-1.1	0.928
L274_T275del	-1.8	-1.27	-2.23	-1.17	-2.56
N266_A267insGSG	-1.66		-1.22	-1.29	-2.28
L273_L274insGSG	-1.58	-0.934	-2.31	-1.74	-2.3
L272del	-1.91	-1.65		-1.43	-1.81
L273_L274insGS	-0.58	-1.7	-2.17	-1.1	-2.51
F265_A267del	-1.39	-1.37	-1.55	-0.803	-1.69
F270_S271insGSG	-2.08	-0.668	-1.06	-1.2	-1.02
A261_K262insG	-1.4	-1.25	-1.76	-1.42	0.211
S271_L272del	-2.09	-1.66	-1.52	-1.37	-2.2
H269del	-1.15	-1.21	-1.72	-0.395	-2.77
F265_N266insGS	-0.587	-0.059	0.238	-0.669	-0.204
Y268_F270del	-0.956	-1.99	-1.76	-1.44	-1.88
F270_S271del	-0.31	-0.744	-1.68	-0.921	-1.99
S271_L272insGSG	-1.69	-1.36	-2.14	-0.942	-2.01
N266_A267insG	-0.784	-0.637	-0.88	-0.87	-0.717
V264_N266del	-1.82	-0.694	-1.03	-1.18	-0.608
A267del	-0.586	-1.05	-1	-0.925	-2.17
D259_F260insGS	-1.28	-1.43	-1.81	-1.36	0.916

Scores with a large standard error are left out. Two further conditions of the source, in which the scores hardly spread, are not listed. In variant names, del marks residues removed and ins residues inserted between the two positions. For some assays here: The concentration of ogerin is not given here.
